# Laboratory results from article PMC4336329 (PLoS ONE, 2015).
# About 14,000 (4.5%) of roughly 310,000 compounds showed an effect of 50% or more. Effects have a minus sign here. The list shows a part of the results.
# Target: human ether-à-go-go-related gene (hERG) potassium channel (human, UniProt Q12809)
# Assay: primary screen, population patch clamp on CHO cells stably expressing hERG
# 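Further: peak tail current of the secondary pulse compared with the same well before compound.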
# Chain of human ether-à-go-go-related gene (hERG) potassium channel (Q12809 whole entry, looked up): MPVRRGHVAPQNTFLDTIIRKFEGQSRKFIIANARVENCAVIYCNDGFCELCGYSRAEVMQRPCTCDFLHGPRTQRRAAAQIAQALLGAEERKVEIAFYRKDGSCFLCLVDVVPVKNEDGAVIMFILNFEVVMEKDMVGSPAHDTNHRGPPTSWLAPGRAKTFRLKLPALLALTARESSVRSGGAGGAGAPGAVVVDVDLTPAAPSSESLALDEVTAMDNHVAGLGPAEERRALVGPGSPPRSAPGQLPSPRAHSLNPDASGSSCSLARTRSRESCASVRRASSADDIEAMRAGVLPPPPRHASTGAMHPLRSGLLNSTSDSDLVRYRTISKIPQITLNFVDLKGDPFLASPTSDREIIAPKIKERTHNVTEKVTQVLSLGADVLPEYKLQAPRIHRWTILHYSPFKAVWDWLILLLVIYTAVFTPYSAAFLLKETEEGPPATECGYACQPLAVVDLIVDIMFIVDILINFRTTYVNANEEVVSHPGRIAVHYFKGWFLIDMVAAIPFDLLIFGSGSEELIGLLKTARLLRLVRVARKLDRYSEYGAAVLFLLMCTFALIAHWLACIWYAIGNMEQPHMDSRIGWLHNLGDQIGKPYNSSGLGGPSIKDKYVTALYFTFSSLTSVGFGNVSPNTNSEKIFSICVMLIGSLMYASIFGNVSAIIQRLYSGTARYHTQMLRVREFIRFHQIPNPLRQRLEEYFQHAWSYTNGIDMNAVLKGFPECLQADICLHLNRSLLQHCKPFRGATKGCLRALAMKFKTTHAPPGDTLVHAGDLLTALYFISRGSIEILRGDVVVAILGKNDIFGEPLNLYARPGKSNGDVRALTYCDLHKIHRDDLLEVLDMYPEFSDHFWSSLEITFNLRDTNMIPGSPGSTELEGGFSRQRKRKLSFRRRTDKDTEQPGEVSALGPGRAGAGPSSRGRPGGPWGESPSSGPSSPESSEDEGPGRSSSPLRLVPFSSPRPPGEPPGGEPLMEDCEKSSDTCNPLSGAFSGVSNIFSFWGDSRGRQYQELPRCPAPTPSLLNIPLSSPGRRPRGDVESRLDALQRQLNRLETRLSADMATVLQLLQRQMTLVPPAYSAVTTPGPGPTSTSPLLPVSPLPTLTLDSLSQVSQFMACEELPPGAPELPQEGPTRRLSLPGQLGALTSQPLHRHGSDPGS
row,SMILES,"hERG current change (%, negative = inhibition) at 10uM [%]"
1,CCCNC(=O)c1ccccc1NC(=O)c1ccccc1SC,3.1
2,COc1cc(S(=O)(=O)NCc2ccncc2)c(OC)cc1Br,-14.7
3,CCc1cccc2c(C(=O)COC(=O)c3nn(C)c(=O)c4ccccc34)c[nH]c12,-65.6
4,CC(=O)c1ccc(NC(=O)CSC(C)C)cc1,-9.24
5,Cc1ccc(NC(=O)/C(C#N)=C(\N)C(Cl)(Cl)Cl)nc1,15.1
6,COc1cccc(Cn2nnc(C(=O)NCc3ccccc3Cl)c2N)c1,-3.06
7,O=C(c1ccc2c3c(cccc13)CC2)C1CCCN(Cc2ncc[nH]2)C1 (centres unmarked),-55.7
8,O=C(Cc1ccc(Cl)c(Cl)c1)N1CCOCC1,28
9,COC(c1ccc(Cl)cc1)(c1ccc(Cl)cc1)C(Oc1nc(C)cc(C)n1)C(=O)O (centres unmarked),12.7
10,C#CCOCCOCCOCCNc1nc(N2CCN(C(=O)[C@H](CCCCN)n3cc([C@@H](N)C(C)CC)nn3)CC2)nc(N2CCN(C(=O)[C@H](Cc3ccc(O)cc3)n3cc([C@@H](N)CC(C)C)nn3)CC2)n1.Cl (some centres unmarked),-4.75
11,O=C(Nc1ccc(Cl)cc1F)c1cccc2ccccc12,12.2
12,CN(C1=NC(=O)CS1)c1ccc(O)cc1,-3.05
13,CC(=O)NCC(=O)N(C)C(C(=O)Nc1ccc2c(c1)OCCO2)c1ccc(C)cc1 (centres unmarked),5.94
14,CN(C)c1cccc2c1c(NC(=O)Nc1ccc(Cl)cc1Cl)nn2C,4.01
15,O=C(Cn1cnc2c(nnn2Cc2ccc(Cl)cc2)c1=O)NCc1ccco1,-16.5
16,CC1CCCCN1CCCn1c(=S)[nH]c2ccccc2c1=O (centres unmarked),-46.4
17,CSCCC(NC(=O)c1ccc(Cl)cc1Cl)C(=O)NNC(=O)c1csc(N2CCOCC2)n1 (centres unmarked),-56.8
18,COc1ccc2c(c1)CCCN2C(N)=Nc1ccc(Cl)cc1,-63.7
19,O=C(CSc1nnc(COc2ccc(F)cc2)o1)N1CCCCC1,1.76
20,CCCCc1ccc(NC(=O)OC)cc1,-9.08
21,CC(=O)Nc1cccc(NC(=O)CN2c3cccc4cccc(c34)S2(=O)=O)c1,-3.02
22,COc1cc(C(=O)NCc2ncccc2C)ccc1OC1CCN(C(C)=O)CC1,6.34
23,Cc1cc(C)n(CCCNC(=O)C2CC(=O)N(Cc3ccccc3)C2)n1 (centres unmarked),5

row,SMILES,"hERG current change (%, negative = inhibition) at 10uM [%]"
1,CN(C)CCCNc1c2ccccc2nc2ccccc12,-28.8
2,Nc1nnc(SCc2ccc(F)cc2)n1-c1ccccc1,-20.3
3,FC(F)(F)c1cccc(CNc2ncccc2-c2nc3cc(Cl)ccc3o2)c1,-4.29
4,CC1CCC(NC(=O)CNC(=O)c2cccs2)CC1 (centres unmarked),7.33
5,COCCN1C(=O)C(=O)/C(=C(/O)c2cccc(OC)c2)C1c1ccncc1 (centres unmarked),33.5
6,COc1ccc(OCCSc2nnc3sc4ccccc4n23)cc1,-25.4
7,CCc1nc2ccccc2c2nc3ccccc3n12,3.74
8,COCn1c(-c2ccc(OC)c(OC)c2)nc2ccccc21,-2.29
9,CCCn1c(SCC(=O)c2cc(OC)ccc2OC)nnc1-c1ccco1,-12.5
10,O=C(CCNS(=O)(=O)c1cccs1)N1CCCCCC1,-8.32
11,Cc1ccc(SCC(=O)NN2C(=O)c3ccccc3C2=O)cc1,-5.8
12,CCOc1c(Cl)cc(C2NC(=O)NC(C)=C2C(=O)NCc2ccccc2)cc1OC (centres unmarked),-6.49
13,CSc1ccccc1NC(=O)c1cnc2sc(C)cn2c1=O,4.47
14,CCOc1ccc(C(=O)COC(=O)C2COc3ccccc3O2)cc1 (centres unmarked),15.3
15,N#CCCN(C(=O)COC(=O)CCNS(=O)(=O)c1ccccc1)c1ccccc1,-4.77
16,O=C(/C=C\c1ccc2c(c1)OCO2)CC1(O)C(=O)Nc2ccccc21 (centres unmarked),-0.111
17,O=C(CN1C(=O)S/C(=C\C=C\c2ccccc2)C1=O)Nc1ccccc1C(=O)O,3.17
18,CCOC(=O)Cc1cc(=O)n2[nH]c(-c3ccccc3)cc2n1,4.41
19,Cl.OC(CN1CCCCCC1)CN(c1ccccc1)c1ccccc1 (centres unmarked),-71.8
20,CCc1ccccc1OCCCCN1CCCC1.O=C(O)C(=O)O,-40
21,COCC(=O)NCc1nc2ccccc2[nH]1,-3.75
22,CCc1nc2ccccc2n1CCC(C)C,-5.17
23,C=CCN1C(=O)NC(=O)C(CCc2ccncc2)(CCc2ccncc2)C1=O,-41.8

row,SMILES,"hERG current change (%, negative = inhibition) at 10uM [%]"
1,COc1ccccc1N1CC(C)(C)C(=O)N(C(=O)c2c(F)cccc2Cl)C1=S,15.1
2,CCCCNC(=O)C(C#N)c1nc2ccccc2nc1N1CCN(c2ccccc2F)CC1 (centres unmarked),4.79
3,CC(C)c1cc(C(C)C)n2nc(N)nc2n1,8.66
4,O=C(NCc1ccncc1)C(=O)NCC(c1ccco1)N1CCN(c2ccccc2)CC1 (centres unmarked),-2.2
5,COc1ccc(-n2ncc(N(C)n3cccc3)c(Cl)c2=O)cc1,8.9
6,Cc1cc(NC(=O)C(C)SCC(=O)N(C)CC(=O)Nc2ccc(Br)cc2C)no1 (centres unmarked),-1.15
7,CCCn1nc2cc(C(=O)NCc3ccc4c(c3)OCO4)ccc2c1OCC,-8.03
8,CCc1cc(=O)oc2cc(C)cc(OC(C)C(=O)NCc3cccnc3)c12 (centres unmarked),-32.9
9,CCOC(=O)c1cc(S(=O)(=O)N2CCC(C)CC2)cn1C,17.8
10,Cc1ccc(NC(=O)CN2C(=O)NC(Cc3ccccc3)C2=O)c(Br)c1 (centres unmarked),-5.95
11,N#CCSc1n[nH]c2nc3c(c(=O)n12)C1(CCCCC1)Cc1ccccc1-3,10.9
12,CCN(CC)CCN(Cc1cc2cc3c(cc2[nH]c1=O)OCO3)C(=S)NCC1CCCO1 (centres unmarked),-34.9
13,C=CCOc1ccccc1CNCc1ccc(F)cc1.Cl,-33.3
14,Cc1cccc(C)c1OCC(=O)NCc1nnc(SCC(=O)NC2CCCCC2)n1C,-0.306
15,C#C[C@]1(O)CCC2C3CCC4=CC(=O)CC[C@@H]4C3CC[C@@]21C (some centres unmarked),-29.1
16,COCCn1c(=O)[nH]c2cc(C(=O)Nc3cccc(F)c3)ccc2c1=O,9.25
17,CCCOc1ccc(-c2c(C(=O)N/N=C(\C)COc3ccccc3)nnn2-c2nonc2N)cc1,0.51
18,Cn1cc(CN(CCO)Cc2cccs2)c(-c2cccc(Cl)c2)n1,-21
19,C=CCNC(=O)Cc1ccc(S(=O)(=O)N2CCOCC2)s1,7.7
20,CN(CC(=O)Nc1ccc(F)cc1)C(=O)CSc1nccn1C,-17
21,Cc1ccc(OCC(COCc2ccccc2)NC(C)C)cc1.O=C(O)C(=O)O (centres unmarked),-13.9
22,O=C(N/N=C/c1c[nH]c2ccccc12)c1ccc(O)c(O)c1,25.7
23,CC(CCc1ccccc1)N1CCN(Cc2ccccc2)CC1 (centres unmarked),-75.2

row,SMILES,"hERG current change (%, negative = inhibition) at 10uM [%]"
1,CCOP(=O)(c1ccccc1)C(O)c1ccc(Br)cc1 (centres unmarked),2.86
2,Cn1c(=O)[nH]c(=O)c2c1nc(N1CCN(c3ccccc3)CC1)n2CCSc1ncccn1,-18.9
3,O=C(NN1C(=O)C2C(C1=O)C1C=CC2C12CC2)c1ccncc1 (centres unmarked),11.8
4,CC(C)CN1C(=O)N(c2ccc(Cl)cc2)C(C)(O)CC1(C)C (centres unmarked),32.7
5,COc1ccc(OCC(=O)NCCNC(=O)c2ccncc2)cc1,-17
6,Cc1ccc(C2NC(=O)c3sc(=S)n(-c4ccccc4)c3N2)cc1 (centres unmarked),48.7
7,Cc1nc2ccccc2c(=O)n1Cc1ccco1,-7.41
8,O=C(NCc1cccnc1)[C@@H]1CC=C[C@@H]2CCN(Cc3ccccc3)C(=O)[C@@H]21,3.16
9,CC(C)C(C)NC(=O)COc1ccc(S(=O)(=O)N2CCOCC2)cc1[N+](=O)[O-] (centres unmarked),12.6
10,CC(C)(C)NC(=O)CN(C(=O)c1ccc(CN2CCOCC2)o1)c1ccc2c(c1)OCCO2,13.8
11,CCCCn1c(=O)c(C(=O)NCc2ccc(Cl)cc2)c(O)c2ccccc21,18.8
12,CCn1c(COc2ccc(OC)cc2)nnc1SCC(=O)Nc1cc(OC)ccc1OC,-28.4
13,COC(=O)c1cc(CNC(=O)c2ccc(O)c(Cl)c2)ccc1OC,-17.8
14,NC(=O)CC(NSc1ccccc1[N+](=O)[O-])C(=O)O (centres unmarked),-5.96
15,Cc1cc(OCC(=O)Nc2ccc(N3CCN(C)CC3)cc2)ccc1Cl,-43.4
16,Cl.O=C(NCCCn1ccnc1)c1ccc(Br)cc1,-26.7
17,NC(=O)N/N=C/c1ccc(N2CCOCC2)s1,-4.84
18,CCc1ccc2[nH]c(=O)c(C(c3nnnn3CC3CCCO3)N3CCCc4ccccc43)cc2c1 (centres unmarked),19.8
19,CCOC(=O)C1CCN(C(=O)/C(=C/c2ccccc2)NC(=O)c2ccccc2)CC1,-30
20,O=C(NCc1ccccn1)c1nc(Cn2ccc([N+](=O)[O-])n2)no1,9.36
